This passage reports IFI results from ChEMBL document CHEMBL1157539, “Thousands of chemical starting points for antimalarial lead identification” (Nature, 2010).

Whole data set: some 13,000 compounds, median “IFI” near 4, cut for the highest 2% near 17. The list shows a part of the results.

A short description of the experiment: GSK_TCMDC: Inhibition Frequency Index (IFI). The number of non-kinase HTS assays where a compound showed > 50 % inhibition, expressed as a percentage of the number of such assays in which the compound was tested (-0 is zero). It is filed as functional.
`O=C(O)C1Cc2c([nH]c3ccccc23)C(c2ccc(Cl)cc2Cl)N1` (stereo not given) registered an IFI of 1.47%.
The figure for `O=S(=O)(c1ccccc1C(F)(F)F)C1CC2CCC(C1)N2S(=O)(=O)c1ccc(Cl)c(C(F)(F)F)c1` (stereo not given) is 1.59%.
The figure for `COc1ccc2nccc([C@@H](O)CN3CCC(NCCOc4ccccc4[N+](=O)[O-])CC3)c2c1` is 4.41%; for `COc1ccc(CN2CCN(Cc3cc(Cl)ccc3O)CC2CCO)c(C)c1C` (stereo not given) it is 15.8%.
The value for `Cc1ccc(Cc2c(C)nc3nc(N)nc(N)c3c2C)cc1` was 2.19%; that for `CCC(NCc1ccc(-c2cncc(C(=O)NCC(C)C)c2)cc1)c1ccccc1` (stereo not given) was 3.28%.
Regarding `COc1ccc(NS(=O)(=O)c2ccc(C(=O)Nc3ccc(OC(F)(F)F)cc3)cc2)cc1N1CCN(CC2CC2)CC1`, the IFI turned out to be 8.49%.
The value for `CC(=O)Nc1ccc(S(=O)(=O)N(Cc2cccc(Oc3ccccc3)c2)C2CCN(C/C=C(\C)CCC=C(C)C)CC2)cc1` was 3.52%; that for `O=C(NCc1ccc(F)cc1)Nc1ccc(-c2cccc(-c3nc4cc(C(F)(F)F)ccc4[nH]3)c2)cc1` was 6.56%.
The figure for `COc1cccc2c(NCc3ccccc3)nc(NCCCN3CCCCC3C)nc12` (stereo not given) is 1.44%; for `C=CCc1cc(Br)ccc1OCCCOc1c(C)nc(N)nc1N` it is 8.03%; for `CCC[C@@H]([C@@H](CC1CCCCC1)C(=O)N[C@H](C(=O)Nc1nccs1)[C@@H](C)OCc1ccccc1)N(O)C=O` it is 5.3%.
On to `CCOc1ccc(C(C)NC(=O)C2COc3ccccc3O2)cc1OCC` (stereo not given), for which the IFI came to 0%.
The figure for `Cc1ccc2[nH]c3ccccc3c(=O)c2c1` is 1.52%; for `O=C(NCCN1CCCC1)c1cc(-c2ccc(Cl)c(O)c2)c(-c2ccncc2)o1` it is 0.8%; for `CN(CCNCc1ccc(-c2cccc(-c3nc4ccccc4[nH]3)c2)cc1)S(C)(=O)=O` it is 0%.
The figure for `Cc1cc(N[C@@H](Cc2ccccc2)C(=O)NCCc2ccccc2)nc(NCc2ccccc2C)n1` is 9.52%.
The figure for `Cc1ccc2c(Cc3cnc(N)nc3N)cc(C)c(N)c2n1` is 3.79%; for `O=c1cc(NCCCNCc2cccc(OC(F)(F)C(F)F)c2)[nH]c2ccccc12` it is 2.17%.
In turn, `Cc1cc(NCCC(=O)NCCOc2ccccc2)nc(NCc2ccccc2C)n1` had an IFI of 4.88%.
The value for `Cn1c(CN2CCC(N3CCc4cc(NC(=O)c5ccco5)ccc43)C2)cc2ccccc21` (stereo not given) was 6.67%.
The figure for `CCCCCCNCc1c(O)ccc2c(CNCCCCCC)c(O)ccc12` is 2.19%; for `Cc1cccc2nc(-c3ccc(-c4ccc(CN5CCN(c6ccncc6)CC5)cc4)cc3)[nH]c12` it is 14.2%.
The value for `COc1cc2nc(N3CCC(CNC(=O)c4ccc(-c5ccc(C#N)cc5)cc4)CC3)nc(N)c2cc1OC` was 2.8%; that for `c1ccn2c(-c3ncnc(NCc4ccc5c(c4)CCO5)n3)cnc2c1` was -0%.
